The campaign covered roughly 310,000 compounds. About 2,200 (0.71%) showed an effect of 50% or more. Effects have a minus sign here. Some of the results follow.
Biological target: human ether-à-go-go-related gene (hERG) potassium channel (human, UniProt Q12809)
Test: primary screen, population patch clamp on CHO cells stably expressing hERG

Sequence of human ether-à-go-go-related gene (hERG) potassium channel (Q12809 whole entry, looked up): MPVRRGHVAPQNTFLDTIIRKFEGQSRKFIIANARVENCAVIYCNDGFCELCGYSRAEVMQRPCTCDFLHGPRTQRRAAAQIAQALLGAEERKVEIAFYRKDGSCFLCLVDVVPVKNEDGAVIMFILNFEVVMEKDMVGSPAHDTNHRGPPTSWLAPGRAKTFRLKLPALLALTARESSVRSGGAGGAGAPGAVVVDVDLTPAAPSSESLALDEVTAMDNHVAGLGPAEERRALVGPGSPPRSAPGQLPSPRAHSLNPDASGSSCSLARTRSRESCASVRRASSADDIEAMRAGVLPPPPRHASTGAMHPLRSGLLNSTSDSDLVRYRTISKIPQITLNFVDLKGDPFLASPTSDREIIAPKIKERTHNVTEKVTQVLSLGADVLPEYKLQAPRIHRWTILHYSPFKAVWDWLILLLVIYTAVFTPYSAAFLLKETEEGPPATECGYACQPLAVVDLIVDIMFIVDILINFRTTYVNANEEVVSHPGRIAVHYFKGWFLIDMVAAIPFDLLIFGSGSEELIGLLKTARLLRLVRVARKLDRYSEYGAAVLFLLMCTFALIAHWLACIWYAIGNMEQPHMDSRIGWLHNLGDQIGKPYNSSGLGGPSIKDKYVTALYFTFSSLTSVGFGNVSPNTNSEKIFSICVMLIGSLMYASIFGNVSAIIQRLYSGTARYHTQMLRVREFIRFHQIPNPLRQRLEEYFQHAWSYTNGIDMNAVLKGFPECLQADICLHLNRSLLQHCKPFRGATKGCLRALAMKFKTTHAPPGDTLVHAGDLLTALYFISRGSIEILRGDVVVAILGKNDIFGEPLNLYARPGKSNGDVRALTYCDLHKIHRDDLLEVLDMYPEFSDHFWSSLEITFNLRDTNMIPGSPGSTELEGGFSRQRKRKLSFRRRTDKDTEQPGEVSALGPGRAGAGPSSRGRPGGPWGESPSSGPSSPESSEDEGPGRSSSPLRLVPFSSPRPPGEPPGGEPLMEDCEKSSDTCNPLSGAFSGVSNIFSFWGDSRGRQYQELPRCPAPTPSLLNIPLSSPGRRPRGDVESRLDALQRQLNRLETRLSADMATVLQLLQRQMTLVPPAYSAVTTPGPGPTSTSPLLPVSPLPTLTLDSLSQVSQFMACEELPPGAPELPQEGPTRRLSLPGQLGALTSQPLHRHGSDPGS

SMILES | hERG current change (%, negative = inhibition) at 1uM [%]
CCOCCSC1=C(C#N)C(c2cccs2)C(C(C)=O)=C(C)N1 (stereo not drawn) | 9.75
N=C(N)N1CCN(Cc2ccccc2)CC1.O=S(=O)(O)O | 9.39
COc1ccccc1NC(=O)CN(c1ccccc1F)S(C)(=O)=O | 8.06
O=C(CNC(=O)c1ccc(Cl)cc1)OCc1nc2ccccc2s1 | 8.88
Cc1cc(N/N=C/c2ccc(Cl)cc2Cl)nc(NCc2ccccc2)n1 | 14.9
COC(=O)C1NN=C(C(=O)c2ccc(Cl)cc2)C1c1ccc(OC)cc1 (stereo not drawn) | -1.69
O=C(c1ccccc1F)N1CCN=C1SCc1cccnc1 | 1.86
COC(=O)Cc1cnc(NC(=O)CSc2nc(C(C)C)cc(=O)[nH]2)s1 | 23
Cc1ccc2c(C(=O)CN3CCC(C(N)=O)CC3)c(C)[nH]c2c1 | 10.3
O=C(CN1CCN(C(=O)c2ccco2)CC1)Nc1ccc2c(c1)OCO2 | -8.79
Cc1cc(OC(C)C(=O)NC2CCN(Cc3ccccc3)CC2)c2c(C)cc(=O)oc2c1 (stereo not drawn) | 4.5
O=C(CSc1cn[nH]n1)Nc1ccc(Cl)cc1Cl | 12.5
CCOc1ccc(-c2nnc3ccc(SCc4ccc(C(=O)OC)o4)nn23)cc1 | 7.54
C/C(Cc1ccccc1)=N\NC(=O)CNC(=O)/C=C\c1ccccc1 | 12.4
COc1cc(/C=C/C(=O)O)cc(S(=O)(=O)NCCCC(=O)O)c1OC | 17
Cn1c2ccc(Cl)cc2c2nc3ccccc3nc21 | 21
COc1ccc([C@@H]2CC=C(C(=O)O)[C@H](c3ccc(Cl)cc3)N2S(=O)(=O)c2ccc(Cl)cc2)cc1 | 7.17
Cc1cc(C)nc(N2CCN(c3ncnc4c3cnn4Cc3ccc(Cl)cc3Cl)CC2)n1 | 12.7
COc1cccc(CNS(=O)(=O)c2c(C)nc3sccn3c2=O)c1 | 5.45
Cc1cc(NC(=O)c2ccccc2Cl)ccc1NC(=O)c1ccccc1Cl | 13
Cc1ccc(NC(=O)CN(C)C(=O)CSc2nc3ccccc3c(=O)n2Cc2ccco2)cc1 | -41.8
O=C(Nc1ccc(NC(=O)c2ccccc2)nc1)c1ccncc1 | -1.7
CC(=O)NC(C)c1cc(F)c2cccnc2c1O (stereo not drawn) | -4.05
CCOC(=O)C1=C(O)C(=O)N(c2ccccc2)C1c1cccc([N+](=O)[O-])c1 (stereo not drawn) | -2.68
